Data on 5 variants can be found in the supplement of paper PMC12217912.

B1: TEV protease; numbered along this chain (parent)
chain: MGESLFKGPRDYNPISSSICHLTNESDGHTTSLYGIGFGPFIITNKHLFRRNNGTLVVQSLHGVFKVKDTTTLQQHLVDGRDMIIIRMPKDFPPFPQKLKFREPQREERICLVTTNFQTKSMSSMVSDTSCTFPSGDGIFWKHWIQTKDGQCGSPLVSTRDGFIVGIHSASNFTNTNNYFTSVPKNFMELLTNQEAQQWVSGWRLNADSVLWGGHKVFMVKPEEPFQPVKEATQL

The other results are listed elsewhere or left out. Sequences were assembled here from the parent chain. Values near 0.05 are background.

The variants in this assay derive from B1. Nature of the assay: raw area under fraction-flipped curve 0-4 h after induction (AUC4h, not background-subtracted), DNA-recorder readout of cleavage of the substrate (dimensionless); higher = more cleavage of the substrate by the protease variant. The settings on record: temperature: 34 °C; time window: 0-4 h after rhamnose induction. As for the experimental part: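 In vivo DNA recorder in E. coli TOP10(DE3) ΔrhaA at 34 °C. Each TEVp single-site mutant (parent TEVp 0) is paired with a single-site variant of the 7-mer TEVs (canonical ENLYFQ|S). The substrate sits between flexible linkers in a Bxb1-sfGFP-TEVs-SsrA fusion, so cleavage stabilises Bxb1 and speeds flipping of a recombination array, read by NGS. The value is the raw area under the fraction-flipped curve over 0-4 h after rhamnose induction (AUC4h), with ≥20 reads per time point. It is not background-subtracted; inactive controls average about 0.047.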
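Also: Bxb1 expression induced with 0.2% (w/v) L-rhamnose at OD600 near 0.5, cultures sampled hourly, flipped fraction per protease–substrate barcode pair counted by paired-end Illumina sequencing.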

Take MGESLFKGPRDYNPISSSICHLTNESDGHTTSLYGIGFGPFIITNKHLFRRNNGTLVVQSLHGVFKVKDTTTLQQHLVDGRDMIIIRMPKDFPPFPQKLKFREPQREERICLVTTNFQTKSMSSMVSDTSCTFPSGDGIFWKHWIHTKDGQCGSPLVSTRDGFIVGIHSASNFTNTNNYFTSVPKNFMELLTNQEAQQWVSGWRLNADSVLWGGHKVFMVKPEEPFQPVKEATQL [Q146H]: the “area with substrate ENLYDQS” value amounted to 0.063, the “area with substrate ENLYEQS” value came out at 0.0727, the “area with substrate ENLYHQS” value came out at 0.0791 and the “area with substrate ENLYIQS” value is 0.13. In addition, the “area with substrate ENLYKQS” value came out at 0.0615, the “area with substrate ENLYMQS” value stood at 0.061, the “area with substrate ENLYNQS” value was determined as 0.0706 and the “area with substrate ENLYPQS” value was 0.0764. The “area with substrate ENLYQQS” value came out at 0.0625, the “area with substrate ENLYSQS” value is 0.0719, the “area with substrate ENLYVQS” value amounted to 0.122 and the “area with substrate ENLYWQS” value is 0.077.

For the variant MGESLFKGPRDYNPISSSICHLTNESDGHTTSLYGIGFGPFIITNKHLFRRNNGTLVVQSLHGVFKVKDTTTLQQHLVDGRDMIIIRMPKDFPPFPQKLKFREPQREERICLVTTNFQTKSMSSMVSDTSCTFPSGDGIFWKHWIWTKDGQCGSPLVSTRDGFIVGIHSASNFTNTNNYFTSVPKNFMELLTNQEAQQWVSGWRLNADSVLWGGHKVFMVKPEEPFQPVKEATQL [Q146W], the “area with substrate ENLYDQS” value came to 0.0686, the “area with substrate ENLYEQS” value was determined as 0.0698, the “area with substrate ENLYGQS” value turned out to be 0.0723 and the “area with substrate ENLYHQS” value stood at 0.0944. The “area with substrate ENLYMQS” value is 0.128, the “area with substrate ENLYPQS” value was found to be 0.0904, the “area with substrate ENLYQQS” value turned out to be 0.0586 and the “area with substrate ENLYRQS” value is 0.0505. The “area with substrate ENLYSQS” value was 0.105, the “area with substrate ENLYTQS” value stood at 0.11 and the “area with substrate ENLYYQS” value was 0.0598.

MGESLFKGPRDYNPISSSICHLTNESDGHTTSLYGIGFGPFIITNKHLFRRNNGTLVVQSLHGVFKVKDTTTLQQHLVDGRDMIIIRMPKDFPPFPQKLKFREPQREERICLVTTNFQTKSMSSGVSDTSCTFPSGDGIFWKHWIQTKDGQCGSPLVSTRDGFIVGIHSASNFTNTNNYFTSVPKNFMELLTNQEAQQWVSGWRLNADSVLWGGHKVFMVKPEEPFQPVKEATQL [M125G]: the “area with substrate ENLYDQS” value was 0.0693, the “area with substrate ENLYEQS” value came to 0.0664, the “area with substrate ENLYHQS” value was determined as 0.074 and the “area with substrate ENLYKQS” value stood at 0.0589. In addition, the “area with substrate ENLYNQS” value turned out to be 0.0646, the “area with substrate ENLYPQS” value stood at 0.0902, the “area with substrate ENLYQQS” value stood at 0.0706 and the “area with substrate ENLYVQS” value amounted to 0.129. Moreover, the “area with substrate ENLYWQS” value is 0.0798.

MGESLFKGPRDYNPISSSICHLTNESDGHTTSLYGIGFGPFIITNKHLFRRNNGTLVVQSLHGVFKVKDTTTLQQHLVDGRDMIIIRMPKDFPPFPQKLKFREPQREERICLVTTNFQTKSMSSAVSDTSCTFPSGDGIFWKHWIQTKDGQCGSPLVSTRDGFIVGIHSASNFTNTNNYFTSVPKNFMELLTNQEAQQWVSGWRLNADSVLWGGHKVFMVKPEEPFQPVKEATQL [M125A]: the “area with substrate ENLYDQS” value worked out at 0.0577, the “area with substrate ENLYHQS” value was found to be 0.0787, the “area with substrate ENLYMQS” value was determined as 0.0779 and the “area with substrate ENLYNQS” value stood at 0.0655. Besides, the “area with substrate ENLYPQS” value came out at 0.0644, the “area with substrate ENLYQQS” value worked out at 0.0591, the “area with substrate ENLYSQS” value stood at 0.0719 and the “area with substrate ENLYVQS” value was found to be 0.129.

As for MGESLFKGPRDYNPISSSICHLTNESDGHTTSLYGIGFGPFIITNKHLFRRNNGTLVVQSLHGVFKVKDTTTLQQHLVDGRDMIIIRMPKDFPPFPQKLKFREPQREERICLVTTNFQTKSMSSMVSDTSCTFPSGDGIFEKHWIQTKDGQCGSPLVSTRDGFIVGIHSASNFTNTNNYFTSVPKNFMELLTNQEAQQWVSGWRLNADSVLWGGHKVFMVKPEEPFQPVKEATQL [W141E], the “area with substrate ENLYDQS” value is 0.0516, the “area with substrate ENLYHQS” value came to 0.0584, the “area with substrate ENLYIQS” value is 0.0621 and the “area with substrate ENLYKQS” value came to 0.0306. For the same variant, the “area with substrate ENLYMQS” value was determined as 0.0555, the “area with substrate ENLYPQS” value was determined as 0.0603, the “area with substrate ENLYQQS” value came out at 0.0503 and the “area with substrate ENLYRQS” value was determined as 0.0502. The “area with substrate ENLYSQS” value was determined as 0.0481, the “area with substrate ENLYTQS” value amounted to 0.0361 and the “area with substrate ENLYWQS” value was 0.0535.
